Experimental data as given in the supplement of paper PMC3334620.
Over roughly 33,000 sequences, “E-score (-0.5 to 0.5)” has its median near -0.054; the highest 2% begin near 0.35. The list shows a part of the results.

What follows are sequences tested against T1, Stb5 (UniProt P38699) (assay: PBM E-score (8-mer binding enrichment) (E-score (-0.5 to 0.5)); higher = stronger / more preferred TF binding; most listed sequences are background and not binding sites). Conditions: protein concentration: 200 nM; construct: GST-full length.
T1 sequence: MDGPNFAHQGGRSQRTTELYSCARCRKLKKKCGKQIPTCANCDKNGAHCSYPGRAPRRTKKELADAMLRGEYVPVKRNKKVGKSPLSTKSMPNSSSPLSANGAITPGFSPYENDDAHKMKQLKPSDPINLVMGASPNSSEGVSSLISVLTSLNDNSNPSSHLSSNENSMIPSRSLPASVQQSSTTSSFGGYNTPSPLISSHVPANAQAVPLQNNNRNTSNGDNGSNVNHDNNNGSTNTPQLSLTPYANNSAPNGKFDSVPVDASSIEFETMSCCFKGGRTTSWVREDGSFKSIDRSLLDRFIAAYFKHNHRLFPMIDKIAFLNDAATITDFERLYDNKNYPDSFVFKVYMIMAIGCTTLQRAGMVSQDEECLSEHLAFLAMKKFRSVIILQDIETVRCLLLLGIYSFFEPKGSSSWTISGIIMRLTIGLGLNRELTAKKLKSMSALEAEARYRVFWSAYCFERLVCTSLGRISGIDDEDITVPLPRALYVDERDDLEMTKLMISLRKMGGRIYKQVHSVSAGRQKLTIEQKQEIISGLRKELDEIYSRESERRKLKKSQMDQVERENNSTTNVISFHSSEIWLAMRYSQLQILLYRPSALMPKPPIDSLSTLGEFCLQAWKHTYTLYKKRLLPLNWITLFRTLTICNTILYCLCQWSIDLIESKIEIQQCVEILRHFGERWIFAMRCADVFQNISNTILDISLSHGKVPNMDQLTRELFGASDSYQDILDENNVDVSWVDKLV
Experimental: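 Universal 'all 10-mer' protein binding microarrays (Agilent AMADID 015681) probed with GST-tagged S. cerevisiae TFs (full-length or DBD) made by in vitro transcription/translation (PURExpress), about 100-200 nM. Bound TF was detected with fluorescent anti-GST. Each ungapped 8-mer (which stands for itself and its reverse complement) is scored by the PBM enrichment score (E-score), a modified Wilcoxon-Mann-Whitney statistic from -0.5 to +0.5, computed with the Universal PBM Analysis Suite. Scale: above 0.35 generally sequence-specific binding.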

Sequence	PBM E-score
CCTGCAGG	-0.179
CAAGATTG	-0.102
CACCCCTC	0.0947
AGAAGAGG	-0.206
ATAACTAC	0.171
GCCACCGC	0.335
ATCGGTTA	0.178
GAAGAAAA	-0.0671
CTTTATTC	-0.191
CCCTGGCC	-0.283
AAAGACCG	0.448
CCGACCTA	0.307
GAAACTGA	-0.0744
ATCGAGAT	-0.214
GCACTCCC	-0.11
CGTCGCTA	0.00429
TCGGTCAA	0.106
CGCCTTGA	0.0397
CTCCCCGA	0.225
AAACTTCA	-0.199
GATTAAGC	0.186
ACATAAGT	-0.0446
CAAATCTG	-0.211
AATTTAGC	-0.036
AAAGTTCT	0.0158

Sequence	PBM E-score
ACGGCGAT	0.362
CACTACAA	0.0255
ACGCGACG	0.00542
AGAGTGTG	-0.243
ACAGTTAG	-0.198
GACTCGTA	-0.101
ACACATAG	-0.179
CACTATGG	-0.18
CAATCCAG	-0.0614
CTTTACGC	-0.0461
AGCGTCAT	-0.0726
CAAAGCGG	0.288
CCGTTCCA	0.245
TCTGACAA	-0.0692
CGCAACTA	0.108
AGCTATTA	-0.041
GAAGGCGC	0.0676
ATAATTCA	-0.151
GAGCCTAA	-0.251
CGTTAACG	0.201
TGCCGTAA	0.139
CAAGAACC	0.0235
ACGTGTAA	-0.0694
AAGCGCAG	-0.00786
ATCCTCCC	-0.0326

Sequence	PBM E-score
CATTACCA	-0.0259
AGGCGGGG	0.38
CAAGGACC	0.174
CCTTACTA	-0.0929
ACACTGTA	-0.211
TCCCAGAA	-0.15
TCTCTCCA	-0.0209
ATTATTTA	0.144
ATATTCGA	-0.0397
AGCGTACC	-0.00734
CCCGAATC	0.126
TCGCCTCA	-0.162
GTATGCGA	-0.0163
CTCCGTTA	0.299
AATCAATC	-0.0462
GATGTTAA	0.139
ACAGATAA	-0.0763
ACGTCAAG	-0.153
AAGGCACA	-0.268
GGTCATAA	0.293
GTGCTCAA	0.0666
AGTGCCCC	-0.129
CATCGAGG	-0.214
CCTCCCCC	-0.245
TAGGGTAA	0.0894

Sequence	PBM E-score
ATCATGAT	-0.199
CGCCATTC	0.108
ACGTGAAA	-0.157
ACCCACTA	0.0277
GGCGCGAC	0.152
AGAAAGTA	-0.0728
CCGTGCAC	0.227
AAATGCCA	0.107
AAAAGCCA	-0.0171
CCCGTGAG	0.127
CCCGCAGG	0.262
TAGTACAA	-0.134
AAGAACGA	-0.042
CTGATCAC	-0.0828
CACTTCTA	-0.0293
TCGGTACA	0.199
CGCACTTA	0.368
ACGTCAGG	-0.00722
CATCGGGG	0.313
AAAGGCTG	-0.205
AGGTCCTA	0.0577
GCTTGGTA	-0.019
CATGGTAC	-0.0239
GGATGGGA	-0.239
ACGTGAAC	-0.124

Sequence	PBM E-score
ATTGTGGA	-0.277
CGTGGAAC	0.0496
CCATTCAG	-0.113
CAGATGCC	-0.0851
GACGGGGA	0.317
CGCGGGCC	0.256
ATGTAGTC	-0.148
CACTACAG	-0.115
CGGAGTAC	0.115
GGTAACCA	-0.212
GCTTTGAA	-0.11
TGATCCCA	-0.099
ATTTCTGG	-0.257
ATCTCGAA	-0.21
GGAGGATA	-0.117
CTGTGAGC	-0.0891
TACACGTA	-0.0952
CGTCATCA	-0.0955
CCCTACAC	-0.0507
AATGAGGT	-0.275
CAACGCAC	0.00162
ATAATAGC	0.178
CTAGTCTC	-0.14
GCTCCAAA	-0.0354
ATCCTATG	-0.044

Sequence	PBM E-score
AACGAGCA	-0.314
ATCTCCGG	0.423
ATTAATAA	0.162
TGAGGGAA	-0.23
ATTTAAGG	-0.0858
AATCATGG	-0.165
AATAGTCA	-0.122
AGCAGGCC	-0.202
CTACGCTA	0.143
AACGTCTC	-0.36
AAAACAGC	0.109
ATATCCGA	0.37
AGTATCCG	0.0952
ACGGAGTC	0.325
CCCCGGTA	0.298
CACCCCCC	-0.14
TGTCGCAA	-0.121
AACCCTAG	-0.232
CACGGACC	0.241
GTCCGATA	0.31
CCGTAGTC	0.0801
GAGGACGC	0.00133
GAATGAGC	-0.204
GAGCTGGC	-0.244
ATTGTGGC	-0.0738

Sequence	PBM E-score
AAACCTCA	-0.103
AAACGACC	-0.124
ACACAGGA	-0.244
GCATGAGC	-0.0601
CGTCCAGC	-0.00696
ACCTATCC	0.00358
CATGACTA	-0.186
AATTAATG	0.132
CCTGTTCA	-0.2
AAATTTTC	-0.0669
ACTTGTGG	-0.238
CACTTAGC	-0.0712
CAAGGAGC	-0.0624
CCCACAAG	0.00897
AAGGATCG	0.0334
CTGCTACA	0.0655
CGCGGAGA	0.287
ATTCCTGA	-0.186
AAATGACA	-0.207
TCGACTAA	-0.173
CCGTGTCA	0.253
AGGTACTA	0.16
